Among the data in the supplement of paper PMC4604168 (melanoma cell lines) are cell count values, retold here.

Some of the results follow. Repeats are few or missing, and single values can be far off.
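Further: cell number obtained by counting DAPI-stained nuclei in high-throughput microscope images with image analysis software, screen run in 1,536-well plates.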

This test deals with A375. The test is described as follows: cell count relative to DMSO control; melanoma cells; higher = more viable cells. The settings on record: library dose: low library concentration; 72 h.
For `CO[C@@H]1[C@H](N(C)C(=O)c2ccccc2)C[C@H]2O[C@]1(C)n1c3ccccc3c3c4c(c5c6ccccc6n2c5c31)C(=O)NC4` [Midostaurin] + C[C@@H]1CCN(C(=O)CC#N)C[C@@H]1N(C)c1ncnc2[nH]ccc12 [CP690550] (first compound 0.08 µM, partner dose 1 µM), the cell count is 77%.

Regarding `C[C@]1(c2nc3c(C(N)=O)cccc3[nH]2)CCCN1` [Veliparib] + CC(C)CCN1c2nc(Nc3cc(F)c(O)c(F)c3)ncc2N(C)C(=O)C1C [BID1870] (first compound 1.4 µM, partner dose 0.2 µM), the cell count was 80.2%.

On to `CO[C@@H]1[C@H](N(C)C(=O)c2ccccc2)C[C@H]2O[C@]1(C)n1c3ccccc3c3c4c(c5c6ccccc6n2c5c31)C(=O)NC4` [Midostaurin] + CC(C)(C)c1cnc(CSc2cnc(NC(=O)C3CCNCC3)s2)o1 [SNS-032] (first compound 0.08 µM, partner dose 0.01 µM), for which the cell count turned out to be 92.4%.

For `NC(=O)Nc1cc(-c2cccc(F)c2)sc1C(=O)N[C@H]1CCCNC1` + COc1ccc(-c2ccc3c(N4CCOCC4)nc(N4C[C@@H](C)O[C@@H](C)C4)nc3n2)cc1CO [KU0063794] (first compound 0.02 µM, partner dose 0.02 µM), the cell count was found to be 43.9%.

The compound `C[C@]1(c2nc3c(C(N)=O)cccc3[nH]2)CCCN1` [Veliparib] + COc1cc2ncnc(Nc3ccc(Oc4ccccc4)cc3)c2cc1OC [SrcI1] (first compound 1.4 µM, partner dose 2 µM) registered a cell count of 74.5%.
